Source: the supplement of paper PMC3334620
In all, about 33,000 sequences were measured (“E-score (-0.5 to 0.5)”: median about -0.035, highest 2% from about 0.34 on). The list shows a part of the results.

Target: T1, Mot3 (UniProt P54785)
T1 sequence: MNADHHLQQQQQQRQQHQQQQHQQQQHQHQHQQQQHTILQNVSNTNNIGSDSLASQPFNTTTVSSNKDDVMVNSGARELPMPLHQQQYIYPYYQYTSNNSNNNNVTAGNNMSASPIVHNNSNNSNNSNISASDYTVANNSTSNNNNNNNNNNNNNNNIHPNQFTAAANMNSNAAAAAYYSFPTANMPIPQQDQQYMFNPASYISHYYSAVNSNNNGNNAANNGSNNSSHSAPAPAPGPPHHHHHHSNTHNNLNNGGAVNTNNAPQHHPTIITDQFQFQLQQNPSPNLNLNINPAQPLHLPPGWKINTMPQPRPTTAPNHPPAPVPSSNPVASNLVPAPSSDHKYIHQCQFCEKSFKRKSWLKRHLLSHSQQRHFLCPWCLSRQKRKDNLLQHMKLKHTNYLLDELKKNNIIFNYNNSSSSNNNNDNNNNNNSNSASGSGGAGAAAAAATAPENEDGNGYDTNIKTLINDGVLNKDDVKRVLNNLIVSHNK
Test: PBM E-score (8-mer binding enrichment) (E-score (-0.5 to 0.5)); higher = stronger / more preferred TF binding; most listed sequences are background and not binding sites
Conditions: protein concentration: 200 nM; construct: GST-full length
How it was run: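 The E-score, a modified Wilcoxon-Mann-Whitney statistic, was computed by the Universal PBM Analysis Suite for every ungapped eight-base word pooled with its reverse complement. Scans behind it were normalised with masliner after bound GST-tagged yeast transcription factors were detected with fluorescent anti-GST. The proteins, at about 100-200 nM, had been applied to universal all-10-mer Agilent arrays made double-stranded by primer extension.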

| Sequence | PBM E-score |
| --- | --- |
| CAAGCGGA | -0.0611 |
| CCTTGCTA | 0.183 |
| GAGCCCCC | -0.247 |
| AATCCTTG | 0.0944 |
| GGAGGCGA | -0.194 |
| AGCTGAGC | -0.229 |
| CTGCGATC | -0.191 |
| AAAGGCAT | 0.39 |
| AAGTCAAC | 0.0384 |
| CAGCGACC | -0.299 |
| AATATCAC | -0.107 |
| AGTTCTCG | -0.137 |
| TCGCCAAA | -0.196 |
| ATTTGCTG | -0.0338 |
| CCTCATTA | 0.13 |
| AGCCGACA | -0.0661 |
| CTATCTCC | -0.0479 |
| AATCTTCG | 0.0651 |
| CGGTGATC | -0.00595 |
| TGAACGCA | 0.0508 |
| CCTTCTTC | 0.0135 |
| AATCCTCC | -0.315 |

| Sequence | PBM E-score |
| --- | --- |
| ACGGCTGA | -0.181 |
| AACTGTCG | 0.00222 |
| AGCGACAC | 0.071 |
| ACGGACGG | -0.26 |
| CGATAGGA | 0.0217 |
| CACAGCTA | 0.118 |
| CATTACGC | 0.27 |
| ATGTGGGC | -0.0442 |
| CGTCGCCC | -0.0459 |
| CCCCAGCC | -0.276 |
| GCTCCAGA | -0.178 |
| AATCCCAC | -0.112 |
| ATGGAAGA | -0.0964 |
| ATGTATAA | 0.256 |
| ATAAGCAT | -0.109 |
| CAGGTGGG | -0.0969 |
| CAAGATAC | 0.23 |
| GGAGATTA | -0.00301 |
| GAAAACAA | 0.168 |
| TGGGCCAA | -0.0942 |
| AAGCGATG | -0.038 |
| CAGATATG | -0.119 |

| Sequence | PBM E-score |
| --- | --- |
| ATTCTAGC | -0.127 |
| TCAAAGAA | 0.169 |
| CATAATAC | 0.158 |
| GTGGGTTA | -0.0837 |
| ATACTAAT | -0.00831 |
| GCCATGCC | -0.183 |
| GCATTGGA | -0.234 |
| GAAGGGTA | 0.0495 |
| GGACGAAA | 0.00917 |
| GATCTTGA | -0.134 |
| CCAACAAC | 0.168 |
| AAGCGCCG | -0.0574 |
| ATGTTTGG | -0.00108 |
| CCTCTACA | 0.184 |
| AAAGTTGA | -0.0636 |
| AGCATTTC | -0.051 |
| CACTTAAA | 0.0503 |
| CTTCGGAA | -0.181 |
| ATACTTCG | -0.0852 |
| GACCCCCC | -0.285 |
| AGGCTCAC | 0.297 |
| TCTTGGAA | 0.0908 |

| Sequence | PBM E-score |
| --- | --- |
| AGGCCACC | 0.093 |
| AGAATAAT | -0.00164 |
| TAAAAGCA | -0.123 |
| CTCACAAA | 0.0174 |
| CGCGTGGC | -0.155 |
| AATTCAGG | 0.166 |
| ATGGTTGA | -0.153 |
| ACGGCCAC | -0.168 |
| CACAACTA | 0.199 |
| AATCTACG | 0.158 |
| GTGTGAGA | -0.0716 |
| AATCAATG | 0.0568 |
| GGTGCTAA | -0.0828 |
| TAACAATA | 0.292 |
| CAGTGTAC | 0.0758 |
| CGGAATAG | -0.201 |
| TATCTTCA | 0.0832 |
| CGGTTGCC | 0.162 |
| CACAAGCG | 0.024 |
| GCTCCTGA | -0.157 |
